In US5464944A (priority 1993, dated 1995):

Legend:
[1] = tested on: A. flavus
Method: (§1) The antifungal activity of compounds synthesized in accord with this invention was measured using art-recognized methods, as described in Duvick et al., J. Biol. Chem. 26:18814-18820 (1992). Results are as follows:
(§2) MIC is the minimum inhibitory concentration, the concentration in μg/ml achieving a score of 1 or greater. MCIC is the Minimum Complete Inhibitory Concentration, the concentration in μg/ml achieving a score of 3 or greater.

[2] = tested on: F. moniliforme
Method: as §1, §2

[3] = tested on: F. graminearum; format: cell-based

Substance	MIC (minimum inhibitory concentration) ([1]; A. flavus, concentration achieving a score of 1 or greater) [µg/mL]	MCIC (Minimum Complete Inhibitory Concentration) ([1]; A. flavus, concentration achieving a score of 3 or greater) [µg/mL]	MIC (minimum inhibitory concentration) ([2]; F. moniliforme, concentration achieving a score of 1 or greater) [µg/mL]	MCIC (Minimum Complete Inhibitory Concentration) ([2]; F. moniliforme, concentration achieving a score of 3 or greater) [µg/mL]	MCIC (Minimum Complete Inhibitory Concentration) [1]	MIC (minimum inhibitory concentration) [1]	MCIC (Minimum Complete Inhibitory Concentration) [2]	MIC (minimum inhibitory concentration) [2]	MIC (minimum inhibitory concentration) ([3]; concentration achieving a score of 1 or greater) [µg/mL]	MCIC (Minimum Complete Inhibitory Concentration) ([3]; concentration achieving a score of 3 or greater) [µg/mL]
Mastoparan	20	40	2.5	10						
Cecropin A					> 80	80	> 80	80	60	> 80

Read-outs that look alike come from different tables or passages of the source.
